Each structure is given as a SMILES string.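 In this assay, cells in 96-well plates receive the compound at five concentrations for 48 hours. Endpoints are linearly interpolated between the surrounding concentrations. The concentration for 50% growth inhibition is given as GI50. TGI is the concentration that stops growth completely.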 Some results are limits rather than exact numbers.

The test system of the experiment is NCI-H322M lung. The experiment is described as follows: NCI-60 cell line screen, 48 h.
On to `O=C1C(=O)N(C23CC4CC(CC(C4)C2)C3)C(=S)N1c1ccccc1`, for which the TGI was above 100 µM. Still for that read-out and setting: the result for `COc1ccc2c(c1)CC1N(C)CCC13CCCCC23` (stereo not given) reads above 100 µM; that for `COc1cc([C@@H]2c3cc4c(cc3[C@@H](NC(=O)c3ccc(OC(C)=O)cc3)C3COC(=O)[C@@H]32)OCO4)cc(OC)c1O` (stereo not given in full), above 100 µM. As for `CCOC(=O)Cn1c(=O)[nH]c(=O)c2[nH]cnc21`, the TGI is above 100 µM. On the same count and under the same terms, the value for `COc1ccc2nc3c([N+](=O)[O-])ccc(NCCCN(C)C)c3c(N)c2c1` was 2.87 µM; that for `Cc1ccc(O)cc1` (tested in a mixture with another compound) was above 100 µM; that for `O=C(O)C1C2CCC(O2)C1C(=O)NCc1cccnc1` (stereo not given) was above 100 µM. `Cc1cc(=O)[nH]c(NNC(C#N)c2ccc(N(C)C)cc2)n1` (stereo not given): the TGI was above 100 µM. As for `CN(C)C=Nc1c2c(nc3ccccc13)CCCC2`, the TGI is above 100 µM.

`O=C(c1cccnc1)N1N=C(c2ccc3c(c2)OCO3)CC1(O)c1cc(F)c(Cl)cc1Cl` (stereo not given): the TGI worked out at 54 µM.

`COc1cccc(/C=N/NC(=O)CN(C)C)c1O` returned a TGI above 100 µM. The same measure, in the same setting: the value for `Cc1cc(C)c(C(=O)/C(=C/c2ccccc2)c2ccccc2)c(C)c1` was above 100 µM. Same read-out and setting: the result for `Nc1nc(N)c2nc(CNc3ccc(C(=O)NC(CCNC(=O)c4ccccc4C(=O)O)C(=O)O)cc3)cnc2n1` (stereo not given) reads above 100 µM; that for `CCC1OC2C(CC=C(C)C)=C3OC(C)(O)C(C)(CC)C(=O)C3=C3OC(=O)C=C1C32` (stereo not given), above 100 µM. Take `C=CCCCC(O)c1ccc(C(O)c2cnc3ccccc3c2)o1` (stereo not given): the GI50 is 25.7 µM and the TGI amounted to 76.4 µM.

In turn, `CC(=O)CC12NC(=O)N(C)N=C1N(C)C(=O)N(C)C2=O` (stereo not given) registered a TGI above 100 µM. On to `Cc1csc2c(=O)n(COCc3ccccc3)c(=O)[nH]c12`, for which the TGI is above 100 µM. The same measure, in the same setting: the value for `CCOC(=O)C1=C(C)N(c2ccc(Cl)cc2)C2(O)C=CC(Nc3ccc(Cl)cc3)=C3C(=O)N(c4ccccc4)C(=O)C312` (stereo not given) was 61.6 µM; that for `CC1=C(C(=O)NCCCN(CCO)CCO)CC(C(=O)NCCCN(CCO)CCO)=C(C)N1` was above 100 µM. `CN(CC1NCCCC1O)C12CC3CC(CC(C3)C1)C2` (stereo not given) gave a TGI above 100 µM. Same read-out and setting: the value for `N#Cc1c(O)c(C=O)c(=O)n2c1[nH]c1ccccc12` was above 100 µM; that for `COC(=O)[C@H](C)[C@@H]1CC[C@](C)(CCC2=C(C)CCCC2(C)C)OO1` was above 25 µM. On to `COC(=O)c1cc2c(nc1C)-c1ccccc1OS2(=O)=O`, for which the TGI is above 100 µM. `Nc1nc(Cl)nc2c1ncn2C1OC(CO)C(O)C1O` (stereo not given): the GI50 was above 100 µM and the TGI was above 100 µM. On to `O=C(Nc1nc(-c2ccccc2Cl)cs1)c1cc(-c2ccc(Cl)cc2)nc2ccc(Cl)cc12`, for which the GI50 is 29.9 µM and the TGI is above 100 µM. Turning to `c1cnc2nc3n(c2c1)CSC3`, the TGI is above 100 µM. Still for that read-out and setting: the value for `CN(C)CCCN=c1c2ccccc2n(C)c2[nH]c(=O)n(C)c(=O)c12` was 20.8 µM. As to `COC1/C=C/OC2(C)Oc3c(C)c(O)c4c(O)c(c(C=NOC(c5ccccc5)c5ccccc5)c(O)c4c3C2=O)NC(=O)/C(C)=C/C=C/C(C)C(O)C(C)C(O)C(C)C(OC(C)=O)C1C` (stereo not given), the GI50 was 2.29 µM and the TGI came to 8.25 µM. For `O=C(c1ccccc1)c1c2n(c3c1cc(O)c1ccccc13)CCN2`, the GI50 is 3.34 µM and the TGI stood at 9.11 µM. For `CCc1n[nH]c(=O)n1N=C(c1ccccc1)c1ccccc1`, the TGI is above 100 µM. On the same count and under the same terms, the value for `O=C1C(Cl)C(c2ccc([N+](=O)[O-])cc2)N1n1cnc2ccccc2c1=O` (stereo not given) was above 100 µM. `COc1ccccc1[C@@H]1CCC2CC[C@@H](c3ccccc3OC)[N+]21Cc1ccccc1` (stereo not given in full) yielded a TGI of 6.74 µM. Still for that read-out and setting: the result for `c1ccc(N2N=NC3C4CC(C5c6ccccc6C45)C32)cc1` (stereo not given) reads above 100 µM; that for `CC(C)(/C=N/O)/[N+]([O-])=C/c1ccccc1`, above 100 µM.

On to `CCN(CC)CC(O)c1cc(-c2ccc(Cl)cc2)nc2cc(Cl)ccc12` (stereo not given), for which the GI50 was 2.33 µM and the TGI is 8.39 µM. For the compound `O=c1[nH]c(-c2ccc(Cl)cc2)cc2ccsc12`, the TGI is above 100 µM.

As to `COC(=O)CC1NC(=O)C1C(C)(OC)OC` (stereo not given), the TGI was above 100 µM. The compound `N/C(=N/N=C/c1cccc(F)c1)NO` returned a TGI above 100 µM. `C=C(C)[C@@H]1CC[C@]2(C(=O)N3CCN(C)CC3)CC[C@]3(C)[C@H](CC[C@@H]4[C@@]5(C)CC[C@H](O)C(C)(C)[C@@H]5CC[C@]43C)[C@@H]12`: the GI50 was 1.73 µM and the TGI worked out at 3.38 µM. Compound `O=C(CC(=O)N1N=C(c2ccccc2)C(N=Nc2ccccc2Cl)C1=O)Nc1ccccc1Cl` (stereo not given) returned a TGI above 100 µM. Turning to `Clc1ccc(Nc2ncnc3c2sc2ncccc23)c(Cl)c1`, the GI50 was 3.05 µM and the TGI was above 100 µM.

In the case of `O=[N+]([O-])c1ccc2c(N=Nc3ccc4ccccc4c3O)c(O)cc(S(=O)(=O)O)c2c1`, the TGI was above 78.5 µM. `c1ccc(Sc2nc(Sc3ccccc3)nc(Sc3ccccc3)n2)cc1` displayed a TGI of 32.9 µM. Same read-out and setting: the result for `NNC(=S)NN/C=C(\C=Nc1ccccc1)[N+](=O)[O-]` reads above 100 µM; that for `CCCCc1c2c(nc3c1CCCC3=O)CCCC2`, above 100 µM. `Cc1cc(Cl)ccc1Nc1nc2c(s1)C(=O)c1ccccc1C2=O` registered a TGI of 10.5 µM. Regarding `O=C(Nc1ccc(Cl)cc1)c1cc2ccccc2cc1OP(=O)(O)O`, the GI50 was 3.93 µM and the TGI turned out to be 36.1 µM.

With `C=CCn1c(=O)c(C(=O)NC(=O)OCC)cn(C2CCCCC2)c1=O`, the TGI was above 100 µM.

`O=C(NCCCc1cn[nH]c(=O)n1)c1cccc2nc3ccccc3nc12` displayed a TGI above 100 µM. Regarding `Cc1ccnc(NC(c2ccccc2)c2ccc3cccnc3c2O)c1` (stereo not given), the GI50 is 1.88 µM and the TGI came to 62.7 µM. `COC(=O)C1=Cc2cn(S(=O)(=O)c3ccc(C)cc3)c3cccc(c23)C(C=C(C)C)N1C(C)=O` (stereo not given): the TGI was above 100 µM.

In turn, `COC(=O)CN(CC1O[C@@H]2OC(C)(C)O[C@@H]2C1NC(C)=O)C(=O)OCc1ccccc1` (stereo not given in full) yielded a TGI above 100 µM.

Turning to `O=C(O)CCCc1cc2c(s1)-c1cccc3cccc-2c13`, the TGI amounted to 92.2 µM. The same measure, in the same setting: the value for `Clc1ccc(Nc2nnc(CNc3ccc(-c4nnc(Nc5ccc(Cl)cc5)o4)cc3)o2)cc1` was above 76.9 µM; that for `CN(C)CCNC(=O)c1cccc2[nH]c(-c3ccc(Cl)cc3)nc12` was 31.4 µM; that for `CC(O)c1ccc(C(O)/C(=N\NC(=O)c2ccncc2)c2nc3ccc([N+](=O)[O-])cc3[nH]c2=O)cc1` (stereo not given) was above 100 µM. `CON(C(=O)OC(C)(C)C)c1ccccc1` registered a TGI above 100 µM. Same read-out and setting: the value for `CSc1nc(SC)c2c(C)cn(C3OC(C)C(O)C(O)C3O)c2n1` (stereo not given) was above 100 µM; that for `CCCCC1N=CNc2c1ccc1c2[nH]c2ccccc21` (stereo not given) was 6.57 µM; that for `C=C1CCC2(C(C)=O)COC1(C)O2` (stereo not given) was above 100 µM. For `COc1cc(/C=C2\CC3C4CCC5=CC(=O)CC[C@]5(C)C4CC[C@]3(C)C2=O)ccc1OCCN1CCCCC1` (stereo not given in full), the GI50 is 2.81 µM and the TGI was found to be 8.44 µM. The compound `O=C(NCCCl)NCc1ccccc1` showed a TGI above 100 µM. As for `C/C(CC(=O)Nc1cccc(C)c1C)=N\NC(N)=S`, the TGI is above 100 µM. Still for that read-out and setting: the value for `O=C1C=CC(=O)[C@H]2C3C=CC(C4C3C3(Cl)C(Cl)=C(Cl)[C@]4(Cl)C3(Cl)Cl)[C@@H]12` (stereo not given in full) was 27.3 µM; that for `CN(CCCCN)c1ccc2c(=O)[nH][nH]c(=O)c2c1` was above 100 µM. Take `NCCCCCCCCCn1c2c(c3ccccc3c1=O)C(=O)c1ccccc1-2`: the GI50 is 9.07 µM and the TGI was 18.9 µM. The corresponding values for `Cc1cc2nc3c4cc([N+](=O)[O-])ccc4n(CCN(C)C)c3nc2cc1C` are 0.487 µM and 6.09 µM.

`Cc1ccc(S(=O)(=O)OC2CSSCC2OS(=O)(=O)c2ccc(C)cc2)cc1` (stereo not given) yielded a TGI of 34.4 µM.

In the case of `Cn1cc(-c2ccc3nnc(C(F)(F)c4ccc5ncccc5c4)n3n2)cn1`, the GI50 was 72.6 µM and the TGI was above 100 µM.

The compound `O=C(O)c1c[nH]c2c(ccc3[nH]cc(C(=O)O)c(=O)c32)c1=O` returned a TGI above 100 µM. The same measure, in the same setting: the result for `COc1cccc2c1C(=O)c1c(O)c3c(c(O)c1C2=O)CC(O)(C(C)=O)CC3O` (stereo not given) reads 36.6 µM; that for `Cc1cc2c(cc1-c1cc3c(cc1C)C(C(C)C)=C(O)C(=O)/C3=C\Nc1ccccn1)/C(=C/Nc1ccccn1)C(=O)C(O)=C2C(C)C`, above 100 µM. Still for that read-out and setting: the value for `CN1c2ccccc2S(=O)(=O)n2c(COc3ccccc3)nnc21` was above 100 µM. As for `O=C1c2ccccc2-c2ccccc2C1(Cl)Cl`, the GI50 is 1.32 µM and the TGI was 2.63 µM. As for `COCC1N=C(c2cc(OC)c(OC)c(OC)c2-c2cc3c(cc2[C@@H](C)O)OCO3)O[C@H]1c1ccccc1` (stereo not given in full), the TGI is above 100 µM.

Compound `CC1(C)OC2[C@@H](CO[C@@]3([C@H]4OC(C)(C)O[C@@H]4CO)OC(C)(C)O[C@@H]23)O1` (stereo not given in full) had a TGI above 100 µM. Same read-out and setting: the value for `COc1cc(C2c3cc4c(cc3OC(NNc3ccccc3)C2C)OCO4)cc(OC)c1O` (stereo not given) was 95.6 µM.

On to `COc1cc2nc3n(c(=O)c2cc1OC)CCCCC3`, for which the TGI is above 100 µM. With `C=CC(=C)CCC(Br)C(C)(C)Cl` (stereo not given), the TGI was above 100 µM. As for `COc1cccc(/C=C2\CCc3ccccc3C2=O)c1`, the GI50 was 18.1 µM and the TGI was found to be 45.3 µM. On to `CC(C)(N)C(=O)N[C@@H]1C(=O)N2[C@@H]1SC(C)(C)[C@@H]2C(=O)O`, for which the TGI is above 100 µM. The same measure, in the same setting: the value for `N#CCN1CCCN(CC#N)CCN(CC#N)CCCN(CC#N)CC1` was above 100 µM; that for `COc1ccc(/C=C(\C2=NC(=O)CS2)c2nc3ccccc3[nH]2)cc1` was above 100 µM. On the same count and under the same terms, the value for `NNc1ncnc2cccc(Cl)c12` was above 100 µM; that for `O=C(NCCC1CN(S(=O)(=O)C(F)(F)F)c2ccccc21)OCc1ccccc1` (stereo not given) was above 100 µM; that for `CC(=O)Nc1ccc(C(=O)n2[nH]c(C)c(/C=C3\C(=O)C=Cc4ccccc43)c2=O)cc1` was above 100 µM. Turning to `COc1cc(=O)oc(/C=C/CO)c1C`, the TGI is above 100 µM. Still for that read-out and setting: the value for `CC(=O)OC12OC(C)(C3C(=O)N(c4ccccc4)C(=O)C31)N(c1ccccc1)C2=O` (stereo not given) was above 100 µM; that for `CCOC(=O)CCC(C(=O)OCC)n1nnc2ccc(Nc3c(C)[n+]([O-])c4cc(F)c(OCC)cc4[n+]3[O-])cc21` (stereo not given) was above 100 µM.
